In all, about 33,000 sequences were measured (“E-score (-0.5 to 0.5)”: median about -0.032, highest 2% from about 0.36 on). Some of the results follow.
Target: T1, Sko1 (UniProt Q02100)
T1 sequence: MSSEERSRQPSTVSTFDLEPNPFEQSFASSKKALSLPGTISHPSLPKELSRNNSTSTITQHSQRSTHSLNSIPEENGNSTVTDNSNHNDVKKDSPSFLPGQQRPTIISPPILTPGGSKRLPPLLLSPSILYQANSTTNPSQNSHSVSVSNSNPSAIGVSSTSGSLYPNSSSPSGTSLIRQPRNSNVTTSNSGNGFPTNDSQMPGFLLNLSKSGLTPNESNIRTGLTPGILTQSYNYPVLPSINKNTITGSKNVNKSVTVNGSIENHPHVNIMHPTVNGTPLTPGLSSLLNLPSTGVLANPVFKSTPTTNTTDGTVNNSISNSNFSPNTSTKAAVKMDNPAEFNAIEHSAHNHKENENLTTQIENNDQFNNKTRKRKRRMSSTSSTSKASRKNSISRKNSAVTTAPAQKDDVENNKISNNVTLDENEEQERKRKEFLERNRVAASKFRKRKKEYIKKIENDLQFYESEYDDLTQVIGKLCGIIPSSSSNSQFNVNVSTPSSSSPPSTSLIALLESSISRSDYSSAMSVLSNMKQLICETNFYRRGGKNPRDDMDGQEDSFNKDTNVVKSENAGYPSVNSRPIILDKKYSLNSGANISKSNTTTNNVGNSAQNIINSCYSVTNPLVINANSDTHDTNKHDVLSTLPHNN
Assay: PBM E-score (8-mer binding enrichment) (E-score (-0.5 to 0.5)); higher = stronger / more preferred TF binding; most listed sequences are background and not binding sites
Settings: protein concentration: 200 nM; construct: GST-full length
How it was run: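 Each ungapped eight-base word and its reverse complement, pooled, received an E-score from the Universal PBM Analysis Suite. Underlying scans, normalised with masliner, recorded fluorescent anti-GST bound to GST-tagged yeast transcription factors. These were applied at about 100-200 nM to universal all-10-mer Agilent arrays double-stranded by primer extension.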

Point of comparison: TAGAATAA, “PBM E-score” value 0.0957. Against it:
- CCAAGCAC — lower, -0.0447
- CCCTTGAA — lower, -0.245
- ATCCACCG — lower, -0.0573
- ACCGCTAT — lower, -0.0819
- TAAGGAGA — lower, -0.0745
- ATTTGTGC — higher, 0.101
- CCACCTGG — lower, -0.267
- CGTGGTAA — higher, 0.199
- ATGTTTCG — higher, 0.214
- GCAATGCA — lower, -0.018
- AGAGCCTG — lower, -0.0792
- ACTGGTTG — lower, -0.0847
- AGTCAGAC — lower, -0.203
- GAAAATGC — lower, 0.0279
- AGCCGATC — lower, 0.0331
- CAGATACC — lower, -0.169
- CCTATCAG — lower, -0.15
- ATCAACGG — lower, 0.0111
- GCCAGCGC — lower, -0.251
- AACCCCTA — lower, -0.215
- TCTAAGAA — higher, 0.162
- ACAATTAC — higher, 0.298
- AGACCGCG — lower, -0.179
- ACTCGTAG — lower, -0.00964
- GCCGGGCA — lower, -0.285
- AGAGATAG — lower, 0.0939
- ATACTTGA — lower, 0.00821
- AAGGTACG — higher, 0.241
- ACTTTGGG — lower, -0.258
- CAGACTGC — lower, -0.147
- GTGAATGA — higher, 0.231
- ATTCCCGA — lower, -0.193
- ACGTTTAC — higher, 0.345
- CATACACA — lower, -0.00338
- AATTAAAA — higher, 0.193
- TGTTTTAA — higher, 0.182
- CGAATGGA — higher, 0.199
- AATGAATG — higher, 0.186
- CCTCGGTC — lower, -0.189
- CATTAGAG — lower, -0.134
- CTTAGAAC — higher, 0.166
- AGACTCAA — lower, -0.0311
- CTAAAACA — lower, 0.0185
- ATGTCGAA — lower, -0.0346
- CATCCGGA — lower, -0.204
- ACCCACCA — lower, -0.0624
- TACACTCA — higher, 0.175
- GGGGCGGA — lower, -0.338
- AGTAGTCC — lower, 0.0244
- GCTCGTGA — lower, -0.116
- ACCACGAT — higher, 0.136
- CTCTAGTA — higher, 0.119
- AATTCTTC — higher, 0.191
- CTCTAACA — lower, 0.0537
- CATTCTGG — lower, 0.00955
- CTGAAGGA — lower, -0.233
- AAGTGGCG — higher, 0.102
- CGATATGC — lower, 0.00147
- CATTACAC — higher, 0.198
- GGTTCTAA — lower, 0.0715
- CCTCTTTC — lower, -0.349
- CAGTTTGG — lower, -0.164
- GCGTGAGC — lower, 0.0263
- GTCCACCA — lower, -0.16
- AAATGCTG — higher, 0.183
- AGCGATGG — lower, -0.247
- CTGGCCGC — lower, -0.156
- CTCAGTAA — lower, 0.061
- GAATAAGA — lower, 0.0165
- CTTGGTGA — lower, 0.00399
- CCTGAGTA — lower, -0.0205
- AATTAAGC — higher, 0.131
- CTTTAACC — lower, -0.248
- AACTATGC — lower, 0.033
- ACGTTGAG — higher, 0.23
- AAGCCAAA — lower, -0.0352
- CCGGAAGG — lower, -0.294
- CATAGCCC — lower, -0.0416
- ATAAACTG — lower, -0.0252
- CATCTGGC — lower, -0.0626
- AAATTATA — higher, 0.235
- CATTTCGA — lower, 0.0809
- TCATTGAA — higher, 0.146
- GAGCGGGA — lower, -0.19
- CTGGAATC — lower, -0.142

— the supplement of paper PMC3334620
